Reference: PubChem BioAssay AID463173 (ICCB-Longwood Screening Facility, Harvard Medical School, 2010)
The campaign covered roughly 52,000 compounds. About 1,700 (3.3%) were called active. Rule as the data show it: active = survival mostly below about 52% (no sharp cut-off); inactive = mostly above about 56%. The list shows a part of the results.

What follows are compounds tested on Wild type (assay: growth inhibition of S. aureus wild type versus tarO mutant, primary screen, teichoic acid synthesis inhibitors, RN4220, OD600 (AID 463173)). Conditions: S. aureus RN4220 wild type/DeltatarO growth, OD600, 18 h, hits give low values, screened at 18.75 µg/mL (by protocol).

| Compound | survival |
| --- | --- |
| COC(=O)c1scc(-c2ccc(C)cc2)c1S(=O)(=O)Nc1ccc(NC(C)=O)cc1 | inactive: 121% |
| Cc1cc(C)c(NC(=O)COCc2cc(-c3cccs3)on2)c(C)c1 | inactive: 82% |
| COc1ccc(-c2cn3nc(SCC(=O)Nc4ccccc4F)ccc3n2)cc1 | inactive: 68% |
| CCc1cccc(N2C(=O)CSC23C(=O)N(Cc2ccccc2F)c2ccccc23)c1 (configuration not stated) | inactive: 83% |
| COc1ccc(-n2ncc(C(=O)NCc3ccc4c(c3)OCO4)c2C2CCN(C(=O)OC(C)(C)C)CC2)cc1 | inactive: 111% |
| O=C(CSc1nccn1Cc1ccc(F)cc1)NCc1ccccc1 | inactive: 72% |
| COc1ccc(S(=O)(=O)N(CC(=O)NCCSc2ccccc2)c2ccc(Cl)cc2)cc1 | inactive: 72% |
| Cc1cccc(OCC(=O)Nc2cccc(C(=O)OCc3cc(=O)n4c(C)csc4n3)c2)c1 | active: -6% |
| CCCCn1c(SCC(=O)NC(C)(C)C)nnc1-c1ccncc1 | inactive: 110% |
| CC(N)c1ccc2c(c1)OCCO2 (configuration not stated) | inactive: 83% |
| Cc1ccccc1CNC(=O)Cc1csc2ccccc12 | inactive: 94% |
| CCCSc1ncc(Cl)c(C(=O)Nc2sc3c(c2C(N)=O)CCCC3)n1 | inactive: 83% |
| COC(=O)c1ccc(-n2nnc(-c3nsc(NC(=O)c4ccc(Cl)cc4)n3)c2C)cc1 | inactive: 79% |
| O=c1c(NCCc2ccc(Cl)cc2)nccn1-c1ccccc1 | active: 14% |
| COc1ccccc1NC(=O)CCNS(=O)(=O)c1ccc2c(c1)CCN2C(=O)C1CC1 | inactive: 135% |
| CCNc1nc(OCC(F)(F)F)nc(N(c2ccccc2)c2ccccc2)n1 | inactive: 129% |
| Cc1cc2n(n1)CCCN2C(=O)Nc1ccc(C)c(Cl)c1 | inactive: 66% |
| Cc1ccc(C)c(N2CCN(S(=O)(=O)c3ccc(F)c(C(=O)Nc4ccc(Cl)cc4Cl)c3)CC2)c1 | inactive: 80% |
| CC(O)Cn1c(Br)nc2c1c(=O)n(C)c(=O)n2C (configuration not stated) | inactive: 103% |

| Compound | survival |
| --- | --- |
| COc1ccc(OC)c(CCNC(=O)c2cc3cccc4c3n2CCS4)c1 | inactive: 71% |
| CCOC(=O)c1c(C)oc2ccc(N(C(=O)c3ccncc3)S(=O)(=O)c3ccc(F)cc3)cc12 | inactive: 54% |
| CCN(Cc1ccccc1)C(=O)CCS(=O)(=O)c1cc(Br)cc2c1N(C(=O)C1CC1)CC2 | inactive: 78% |
| CN(c1ccccc1)S(=O)(=O)c1nnc(NC(=O)c2cccs2)s1 | inactive: 59% |
| CCc1ccccc1N(C)C(=O)c1cc2c(Cl)nc3ccc(C)cc3c2s1 | active: 0% |
| Cc1ccc2[nH]c3c(=O)n(CC(=O)NCCCN4CCN(c5ccc(F)cc5)CC4)ncc3c2c1 | inactive: 87% |
| CCOc1ccccc1NC(=O)Cn1c(=O)n(CCCCC(=O)NCCCOC)c(=O)c2ccccc21 | inactive: 148% |
| CCc1ccc(NC(=O)Cn2nnc(C(=O)NCCc3ccccc3)c2N)cc1 | inactive: 101% |
| O=C(NCc1cccc(F)c1)C1CCN(c2nn3cc(-c4ccc(F)cc4)nc3s2)CC1 | inactive: 72% |
| N#Cc1ccccc1Cn1c(=O)n(-c2ccccc2)c(=O)c2c3c(sc21)CCC3 | inactive: 81% |
| Cc1cccc(C)c1NC(=O)c1nc(SC(C)C)ncc1Cl | inactive: 106% |
| O=C(Nc1ccc(O)c(-c2nc3ccccc3o2)c1)c1ccc(-c2cccc(Cl)c2)o1 | inactive: 77% |
| CC1CCN(S(=O)(=O)c2ccc3c(c2)oc(=O)n3CC(=O)N2CCCCC2)CC1 | inactive: 76% |
| Cc1ccccc1CNCCSc1nnnn1C | inactive: 66% |
| COCCCNC(=O)C1CCN(C(=O)c2ccc(-n3ccc4ccccc43)s2)CC1 | inactive: 76% |
| Cc1cc(C)cc(N(CC(=O)Nc2ccc(C)cc2Cl)S(=O)(=O)c2c(C)[nH]c(=O)[nH]c2=O)c1 | inactive: 60% |
| COc1cccc(CNC(=O)CSc2nnc(C)c3c(C)n(-c4ccccc4)nc23)c1 | inactive: 73% |
| Cc1ccccc1Nc1c(-c2ccc(O)cc2)nc2c(C)cccn12 | inactive: 68% |
| CCC(C(=O)Nc1ccc(F)cc1F)n1nc(-c2ccccc2)c2c(c1=O)CCCC2 (configuration not stated) | inactive: 76% |

| Compound | survival |
| --- | --- |
| COc1ccc(NC(=O)CCS(=O)(=O)c2cc3c4c(c2)CCN4C(=O)CC3)cc1OC | inactive: 110% |
| Cc1nc(N)c(S(=O)(=O)c2ccccc2)c(Nc2ccc(Br)cc2)n1 | inactive: 85% |
| COc1cccc(/C=C/c2nc3ccccc3c(=O)n2-c2ccc(C)c(C)c2)c1OC | inactive: 70% |
| COc1ccc(Cl)cc1S(=O)(=O)N1CCC(c2ccncc2)CC1 | inactive: 134% |
| CC(=O)N1c2ccccc2CC1C(=O)N1CCN(c2cc(Cl)ccc2C)CC1 (configuration not stated) | inactive: 92% |
| CS(=O)(=O)N1CCN(S(C)(=O)=O)CC1 | inactive: 104% |
| COc1ccc(NC(=O)c2ccco2)cc1NC(=O)COc1cc(C)ccc1C(C)C | inactive: 85% |
| COc1ccc(-c2nnc(SCC(=O)Nc3ccc(C)c(Cl)c3)nc2-c2ccc(OC)c(OC)c2)cc1OC | inactive: 131% |
| O=C(c1ccc(F)cc1)N1CCN(CCc2ccncc2)CC1 | inactive: 86% |
| CCOc1ccc(NC(=O)c2c(NC(=O)c3ccncc3)sc3c2CCC(C(C)(C)C)C3)cc1 (configuration not stated) | inactive: 106% |
| O=C(c1cccn1-c1nnc(N2CCCC2)s1)N1CCN(c2ccc(F)cc2)CC1 | inactive: 128% |
| Cc1cccc(OCC(=O)NCc2ccc3c(c2)CCN3C(=O)c2ccc(Cl)cc2)c1 | inactive: 112% |
| CC(=O)Nc1ccc(NC(=O)CN2C(=O)CCc3cc(S(=O)(=O)N4CCCCC4)ccc32)cc1 | inactive: 70% |
| O=C(Cn1cc(SCc2ccc(Cl)cc2)c2ccccc21)N1CCCC1 | inactive: 97% |
| Cc1cccc(CNC(=O)CN2CC(C)Sc3ccccc32)c1 (configuration not stated) | inactive: 71% |
| O=C(Nc1ccc(F)cc1)Nc1nnc(SCC(=O)N2CCCCC2)s1 | inactive: 73% |
| Cc1c(Cl)cccc1-n1nnc(-c2nc(-c3ccc4c(c3)OCO4)no2)c1C | inactive: 73% |
| COc1cccc(NC2=CC(c3ccc(C(C)C)cc3)N(c3cccc(OC)c3)C2=O)c1 (configuration not stated) | inactive: 76% |
| O=C(NCc1ccco1)C(C(=O)c1ccccc1)n1ccccc1=O (configuration not stated) | inactive: 117% |
